Data published in PubChem BioAssay (NCATS).
Values joined by “and” are separate entries in the source; they are usually repeats but may differ in a detail not shown here. Equal entries are not always repeated. This list was built around the results that the source calls inconclusive (neither active nor inactive); the mix of calls is not that of the screen. Potencies beside an inconclusive call are fits to weak or partial responses and may not hold up. Active and inactive are the calls of the source. Calls come from the whole dose curve; as a rule, active = well fitted inhibition curve with a large enough effect; inconclusive = small, poorly fitted or top-dose-only effect; inactive = no such curve, though single readings can be large or run the other way.

Assay: Primary qHTS for inhibitors of nuclear receptor binding SET domain protein 2 (NSD2) in an RCH-ACV wild type WT cells (2C) (AID 1645877); note: nearly all actives have a fitted effect of over 70% in size
Settings: RCH-ACV (leukaemia line) NSD2 WT (2C) viability, CellTiter-Glo, 72 h; activity change, negative = cell killing: at 44.9 µM (top of the series); series mostly up to 44.9 µM
% is set by controls: 0 for no effect and ±100 for the full control effect; potency is the fitted concentration of half-maximal effect; tags give direction and shape of the fitted curve.

| Compound | Potency | activity change, negative = cell killing |
| --- | --- | --- |
| Nc1ncnc2c1nc(N)n2[C@@H]1O[C@H](CO)[C@@H](O)[C@H]1O | active: 0.649 µM |  |
| CC(CCC1(O)OC2CC3C4CC=C5CC(O[C@@H]6O[C@H](CO)[C@@H](O[C@@H]7O[C@@H](C)[C@H](O)[C@@H](O)[C@H]7O)[C@H](O)[C@H]6O[C@@H]6O[C@@H](C)[C@H](O)[C@@H](O)[C@H]6O)CCC5(C)C4CCC3(C)C2C1C)CO[C@@H]1O[C@H](CO)[C@@H](O)[C@H](O)[C@H]1O (some centres not stated) | inconclusive: 3.88 µM [inhibitor, single point] |  |
| COc1ccnc(CS(=O)c2nc3cc(OC(F)F)ccc3[nH]2)c1OC (configuration not stated) |  | inactive: -27.4% |
| Nc1cccc(CNC(=O)c2ccc(Oc3ccc(OCc4cccc(F)c4)cc3)nc2)c1 | inconclusive: 14.5 µM [inhibitor, partial curve, poor fit] |  |
| C=C(CCC1=C(C)[C@H]2[C@H](CC3[C@@H]4CC=C5C[C@@H](O)C[C@@H](O)[C@]5(C)C4[C@H](O)C[C@@]32C)O1)CO[C@@H]1O[C@H](CO)[C@@H](O)[C@H](O)[C@H]1O (some centres not stated) | active: 0.963 µM |  |
| Cc1ccccc1-n1c([C@H](C)Nc2nc(N)nc3nc[nH]c23)nc2cccc(C)c2c1=O | active: 0.411 µM |  |
| CC1CCN(C(=O)CC#N)CC1N(C)c1ncnc2[nH]ccc12 (configuration not stated) |  | inactive: -18.4% |
| O=C1CSc2ccccc2N1Cc1cccc(C(F)(F)F)c1 | inconclusive: 7.28 µM [inhibitor, partial curve, poor fit] |  |
| CCN(CC)CCCCNc1ncc2c(n1)N(C)C(=O)N(c1c(Cl)c(OC)cc(OC)c1Cl)C2 | active: 13.2 µM |  |
| COc1ccc(Cc2cnc(N)nc2N)cc1OC |  | inactive: 8.26% |
| COc1cc2nc(N3CCN(C)CC3)nc(NC3CCN(Cc4ccccc4)CC3)c2cc1OC | active: 5.78 µM |  |
| COc1ccc2nccc(C(=O)CC[C@@H]3CCN(CC#Cc4cc(F)cc(F)c4F)C[C@@H]3C(=O)O)c2c1 | inconclusive: 18.3 µM [inhibitor, single point] |  |
| CCN(CC)CCOc1ccc2c(c1)C(=O)c1cc(OCCN(CC)CC)ccc1-2 | active: 9.44 µM |  |
| Cc1c(NC(=O)c2cc(C(N)=O)nc3cc(F)ccc23)c(C(F)(F)F)nn1Cc1ccc(C#N)cc1 | inactive and inconclusive: 1.05 µM [inhibitor, full curve, poor fit] |  |
| CN1CCc2cccc3c2[C@H]1Cc1ccc(O)c(O)c1-3 | active: 7.5 µM |  |
| Cc1ccc(Nc2c(F)cccc2Cl)c(CC(=O)O)c1 | inconclusive: 29.9 µM [inhibitor, partial curve, poor fit] |  |
| N#CC(c1ccnc(OCc2ccc(CN3CCOCC3)cc2)n1)c1nc2ccccc2s1 (configuration not stated) | inconclusive: 2.3 µM [inhibitor, full curve] |  |
